Reference: PubChem BioAssay AID686978 (National Center for Advancing Translational Sciences (NCATS), 2013)
Out of some 420,000 compounds screened, about 64,000 (15%) were called active. Inconclusive means that the source gave no clear call. Such entries were picked first, then a sample of the others. Calls follow the shape of the dose curve; as a rule, active = well fitted inhibition curve with a large enough effect; inconclusive = small, poorly fitted or top-dose-only effect; inactive = flat fitted curve, though single readings scatter. Potencies of inconclusive entries are left out as doubtful fits.

Test: qHTS for Inhibitors of human tyrosyl-DNA phosphodiesterase 1 (TDP1): qHTS in cells in absence of CPT; also: nearly all actives have a fitted effect of over 55% in size
Settings: DT40 Tdp1-/- hTDP1 cells, no CPT, ATP luminescence, 48 h; activity change, negative = growth inhibition: at 46.2 µM (top of the series) unless noted
In short: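 Luminescent ATP content (CellTiter-Glo) served as the growth readout. Knockout chicken DT40 cells expressing human TDP1 were exposed to compounds without camptothecin for a minimum 48 hr at 37 °C.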
% is scaled to controls: 0 for no effect and ±100 for the full control effect; potency is read from the fitted curve at half-maximal effect; tags tell the direction and shape of the fitted curve.

SMILES	activity change, negative = growth inhibition	Potency
COc1ccc(C2CC(c3cccs3)=NN2C(=S)Nc2ccccc2)cc1OC (stereo unspecified)	inactive: -5.42%	–
CN(c1cccc(NC(=O)Nc2ccc(Cl)cc2)c1)S(C)(=O)=O	–	active: 25.9 µM
COc1ccc(-n2cc(CN(C)CCO)c(-c3cccc(F)c3)n2)cc1	–	inconclusive [inhibitor, single point]
CC(C)C(=O)Nc1sc2c(c1-c1nc3ccccc3[nH]1)CCCC2	–	inconclusive [inhibitor, partial curve]
Cc1[nH]c2ccccc2c1/C=N/NC(=O)C1CC1(c1ccccc1)c1ccccc1 (stereo unspecified)	–	inconclusive [inhibitor, single point]
Cc1ccc(SCCCCN2CCNCC2)cc1	–	inconclusive [inhibitor, single point]
Cc1ccc(Cl)c(NC(=O)CN2CCNC(=O)C2)c1Cl	–	inconclusive [inhibitor, single point]
O=C(Nc1ccc(Oc2ccc(Br)cc2)cc1)C1=CC=CN2CCS(=O)(=O)N=C12	inactive: -3.75%	–
COc1ccc(COCC(O)CN2CCCCC2)cc1OC (stereo unspecified)	inactive: -18.7%	–
COc1cc(OC)cc(C(=O)NCCc2csc(-c3ccc(C(F)(F)F)cc3)n2)c1	–	active: 18.4 µM
COc1cc(Cl)ccc1OCc1cc(C(=O)N2CCN(C3CCCCC3)CC2)no1	–	active: 23.1 µM
CO[C@H]1CN(C)C(=O)c2ccc(NC(=O)C3CCC3)cc2OC[C@H](C)N(Cc2ccc(F)cc2)C[C@@H]1C	–	inconclusive [inhibitor, single point]
Cc1ccc(NC(=O)CCN2C(=O)c3ccccc3Sc3ncccc32)c(Cl)c1	–	active: 18.4 µM
CC1=CC(C)(C)N(C(=O)CNC2CCCCC2)c2cc(C)ccc21	–	inconclusive [inhibitor, single point]
O=C(CSc1nc2ccccc2s1)Nn1cnnc1	inactive: 6.84%	–
COc1ccc(C(=O)NC(=S)NNC(=O)c2ccccc2C)cc1	–	inconclusive [inhibitor, single point]
COc1ccc(C(C(=O)NC2CCCC2)n2c(CSCCOc3ccccc3)nc3ccccc32)cc1 (stereo unspecified)	–	inconclusive [inhibitor, single point]
CN1CCN(c2ccc(Cl)cc2NS(=O)(=O)c2ccccc2Cl)CC1	–	inconclusive [inhibitor, partial curve, poor fit]
COc1ccc(N2CCN(C(=O)c3oc4ccccc4c3C)CC2)cc1	–	inconclusive [inhibitor, single point]
COc1ccc(C(=O)/C=C\c2ccc(NC(=O)c3cccs3)cc2)cc1	–	inconclusive [inhibitor, partial curve]
Cc1cccc(C(=O)N2CCCCCC2)c1[N+](=O)[O-]	–	inconclusive [inhibitor, single point]
Cc1ccc(N2CC(C)Cn3c2nc2c3c(=O)[nH]c(=O)n2C)cc1C (stereo unspecified)	–	inconclusive [inhibitor, partial curve]
Cn1nc(N2CCN(S(=O)(=O)c3ccccc3)CC2)c(=O)n(C)c1=O	–	inconclusive [inhibitor, partial curve]

SMILES	activity change, negative = growth inhibition	Potency
Brc1ccc(-c2csc(N3CCc4ccccc4C3)n2)cc1	inactive: -28.6%	–
Cc1ccc(-c2n[nH]c(=O)c3ccccc23)cc1S(=O)(=O)NCCO	inactive: -22.5%	–
CSc1nc(Cl)c(Cc2ccc(OC(C)C)cc2)c(N2CCOCC2)n1	–	inconclusive [inhibitor, single point]
Cc1nn(C)cc1S(=O)(=O)Nc1ccccc1Br	inactive: -17.8%	–
CCS(=O)(=O)N1CCc2cc(C(=O)NCc3ccccc3Cl)ccc21	–	inconclusive [inhibitor, partial curve]
CCCNC(=S)N1CCC(c2nc3cc(C)c(C)cc3[nH]2)CC1	–	inconclusive [inhibitor, single point]
N#Cc1c(NC(=O)C2C3C=CC(C3)C2C(=O)O)sc2c1CCCCC2 (stereo unspecified)	–	inconclusive [inhibitor, single point]
O=C(NC1CCCCC1)C(c1ccco1)N(C(=O)c1csnn1)c1ccc(Cl)cc1 (stereo unspecified)	–	inconclusive [inhibitor, partial curve, poor fit]
C[C@H](CO)N1C[C@H](C)[C@@H](CN(C)C)Oc2c(NS(=O)(=O)c3cn(C)cn3)cccc2C1=O	inactive: -4.05%	–
Cc1ccc(F)cc1NC(=O)CSc1nc(Nc2ccccc2)nc(N2CCOCC2)n1	–	inconclusive [inhibitor, single point]
CCc1ccc(N2C(=O)C(Cl)=C(Nc3ccc(C(=O)N4CCCC4)cc3)C2=O)cc1	inactive: -5.99%	–
COc1ccc(N/C=C\C(=O)c2ccc3ccccc3c2)cc1	inactive: -3.82%	–
Clc1ccc(Cn2cnc3ccccc32)cc1	–	inconclusive [inhibitor, single point]
COc1ccc(C(C(=O)Nc2ccc(F)cc2)N2CCN(c3ccncc3)CC2)cc1 (stereo unspecified)	–	inconclusive [inhibitor, single point]
CC(=O)Nc1nc2c(s1)C(=O)NCCC2	inactive: 1.21%	–
N=C1c2ccccc2CN1NC(=O)c1cccc(S(=O)(=O)N2CCCC2)c1	inactive: 1.61%	–
O=C1CC(Sc2ccc(Cl)cc2)C(=O)N1Cc1ccncc1 (stereo unspecified)	–	active: 18.4 µM
O=C(O)CCC(=O)NNC(=O)c1ccc([N+](=O)[O-])cc1	–	inconclusive [inhibitor, single point]
O=C(CSc1nnnn1-c1ccc(Cl)cc1)Nc1cccnc1Cl	–	inconclusive [inhibitor, single point]
Cc1cc(OCC(=O)Nc2ccncc2)ccc1Cl	–	inconclusive [inhibitor, partial curve]
CC(C)CN1CCN(Cc2cccn2-c2ccc(Cl)cn2)CC1CCO (stereo unspecified)	–	inconclusive [inhibitor, single point]
O=C1CC(c2ccc(F)cc2)CC(O)=C1C=NCCN1CCN(C(=O)Nc2ccccc2)CC1 (stereo unspecified)	inactive: -24.1%	–
O=C(c1cc2ccc3cccnc3c2[nH]1)N1CCN(c2cccc(Cl)c2)CC1	–	inconclusive [inhibitor, single point]
